Out of some 350,000 compounds screened, about 9,900 (2.8%) were called active. Inconclusive results, whose numbers are uncertain, are shown with a selection of clear calls. The call rests on the fitted dose curve; in most records, active means well fitted activation curve with a large enough effect; inconclusive means small, poorly fitted or top-dose-only effect; inactive means no such curve, though single readings can be large or run the other way. Potencies of inconclusive entries are left out as doubtful fits.
test: A quantitative high throughput screen for small molecules that induce DNA re-replication in MCF 10a normal breast cells.; further: nearly all actives have a fitted effect of over 50% in size; settings: MCF 10A DNA re-replication, Hoechst nuclear intensity, 48 h; series mostly up to 46.1 µM
Potency means the concentration at half of the fitted maximal effect; tags describe the fitted curve by direction and shape.

Q: Which Potency does the source give for `COc1cc(CN(C)CC2CCCN(CCc3ccccc3F)C2)cc(Cl)c1OC` (stereo not drawn) here?
A: Its Potency is inconclusive [activator, partial curve, poor fit].

Q: Which Potency does the source give for `CS(=O)CCC(NS(=O)(=O)c1ccccc1)C(=O)O` (stereo not drawn) here?
A: The Potency was inconclusive [activator, partial curve, poor fit].

Q: Which Potency does the source give for `CC(NC1c2ccccc2-c2ccccc21)c1ccccc1` (stereo not drawn) here?
A: Its Potency is inconclusive [activator, single point].

Q: With `CCc1ccc(CC2(O)CC(C)N(C)CC2C)cc1` (stereo not drawn) as the compound, how does the Potency read?
A: The Potency was inconclusive [activator, single point].

Q: With `COc1cc(OC)cc(-c2sc3ccc(OC)cc3c2-c2ccc(OCCN3CCCCC3)cc2)c1` as the compound, how does the Potency read?
A: Its Potency is active: 18.4 µM.

Q: For `CCn1c(SCc2nc3scc(-c4ccccc4)c3c(=O)[nH]2)nnc1-c1cccs1`, which Potency is on record?
A: The Potency was inconclusive [activator, single point].

Q: Which Potency does the source give for `O=C(COC(=O)c1ccco1)NCCc1ccc(Cl)cc1` here?
A: Its Potency is “inactive”.

Q: For `O=C(NCc1cn(-c2ccccc2)nc1-c1ccccc1)c1cc([N+](=O)[O-])cc([N+](=O)[O-])c1`, which Potency is on record?
A: Its Potency is “inactive”.

Q: Which Potency does the source give for `CCN1CCCC1CN(Cc1cc2ccc(C)cc2[nH]c1=O)C(=S)Nc1ccccc1C(=O)OC` (stereo not drawn) here?
A: The Potency was inconclusive [activator, single point].

Q: For `CCc1nc2ccccc2c(C(=O)Oc2cccc3cccnc23)c1C`, which Potency is on record?
A: The Potency was inconclusive [activator, partial curve, poor fit].

Q: With `Cc1cc(Br)cc2c1N(C)C(=O)C2(c1ccc(O)cc1)c1ccc(O)cc1` as the compound, how does the Potency read?
A: The Potency was inconclusive [activator, single point].

Q: For `O=C1CCC/C1=c1\s/c(=C/c2cccnc2)c(=O)n1-c1ccccc1`, which Potency is on record?
A: Its Potency is “inactive”.

Q: For `COc1ccc(OC)c(NC(=O)c2cccc(NC(=O)c3ccccc3C(=O)O)c2)c1`, which Potency is on record?
A: Its Potency is “inactive”.

Q: Which Potency does the source give for `CCOC(=O)c1ccc(N2CCOCC2)c(NC(=O)c2c(-c3ccccc3)noc2C)c1` here?
A: Its Potency is active: 10.3 µM.

Q: With `COc1cc(/C=C/c2nc(-c3ccccc3O)n[nH]2)cc(OC)c1OC` as the compound, how does the Potency read?
A: The Potency was inconclusive [activator, single point].

Q: For `Cc1c(C(=O)N(C)C2CCCCC2)sc2ncnc(N3CCN(c4ccccc4)CC3)c12`, which Potency is on record?
A: Its Potency is inconclusive [activator, single point].

Q: For `CN1CCN(/N=C/c2nc(-c3ccc(Cl)cc3)n3ccccc23)CC1`, which Potency is on record?
A: Its Potency is inconclusive [activator, single point].

Q: For `O=C(/C=C/c1ccc(N2CCC(c3ccccc3)=N2)cc1)c1ccccc1`, which Potency is on record?
A: The Potency was active: 6.51 µM.

Q: Which Potency does the source give for `Cc1cc(C)c(O)c(-c2cc(C(=O)Nc3ccc(S(=O)(=O)N4CCOCC4)cc3)[nH]n2)c1` here?
A: Its Potency is inconclusive [activator, full curve].

Q: For `O=C(COc1ccccc1Cl)Nc1ccc(N2CCCC2)cc1`, which Potency is on record?
A: The Potency was inconclusive [activator, single point].

Q: With `COc1ccc(CCn2c(O)cc3nn(-c4nc5ccccc5s4)c(=O)c-3c2C)cc1` as the compound, how does the Potency read?
A: The Potency was “inactive”.

Q: For `COCCOCCn1c(/C=C/c2ccccc2)nc2ccccc21`, which Potency is on record?
A: The Potency was “inactive”.

Q: For `COc1ccc(OCc2cc(C(=O)N[C@H]3CCCCNC3=O)no2)c(Cl)c1`, which Potency is on record?
A: Its Potency is “inactive”.

Q: For `Cc1cc(C)c2nc(NNC(=O)c3ccc(S(=O)(=O)N4CCCCC4)cc3)sc2c1`, which Potency is on record?
A: The Potency was inconclusive [activator, single point].

Q: Which Potency does the source give for `NC(=O)CSc1nnc(Cn2cnc3ccccc32)o1` here?
A: The Potency was inconclusive [activator, partial curve, poor fit].

Q: With `CC1CCN(C(=O)c2[nH]cnc2C(=O)N(C)Cc2ccccc2)CC1` as the compound, how does the Potency read?
A: Its Potency is inconclusive [activator, partial curve, poor fit].

Q: With `COc1ccc(C(=O)NCc2nnc(SCC(=O)N3CCc4ccccc43)n2C2CCCCC2)cc1` as the compound, how does the Potency read?
A: The Potency was “inactive”.

Q: Which Potency does the source give for `COc1ccc(C(=O)N(Cc2ccco2)C(C(=O)NC2CCCC2)c2ccc(O)cc2)cc1OC` (stereo not drawn) here?
A: The Potency was inconclusive [activator, full curve, poor fit].

Q: With `O=C(O)CCC(=O)Nc1nc(-c2ccccc2)cs1` as the compound, how does the Potency read?
A: Its Potency is “inactive”.

Q: For `COc1cccc2sc(N(CCCN(C)C)C(=O)C(c3ccccc3)c3ccccc3)nc12`, which Potency is on record?
A: Its Potency is inconclusive [activator, single point].

Q: With `CC(C)[C@H](NC(=O)c1ccc(Cl)cc1Cl)C(=O)NNC(=O)c1ccco1` as the compound, how does the Potency read?
A: The Potency was “inactive”.

Q: Which Potency does the source give for `O=c1c2ccccc2c(-c2ccccc2)nn1Cc1c(Cl)cccc1Cl` here?
A: Its Potency is inconclusive [activator, single point].

Q: Which Potency does the source give for `CN(C)S(=O)(=O)c1cccc(-c2nn(-c3ccccc3)cc2/C=C2\SC(=S)N(CC(=O)O)C2=O)c1` here?
A: The Potency was “inactive”.

Q: With `CCOc1cc(C2C(C#N)=C(N)Oc3cc(N)ccc32)ccc1O` (stereo not drawn) as the compound, how does the Potency read?
A: The Potency was inconclusive [activator, partial curve, poor fit].

Q: Which Potency does the source give for `Cc1ccc(-c2csc(NC(=O)CCNC(=O)c3ccccc3Cl)n2)cc1` here?
A: Its Potency is inconclusive [activator, partial curve, poor fit].

Q: Which Potency does the source give for `COc1ccc(CC(=O)Nc2ccc(NC(=O)c3ccccc3F)cc2)cc1` here?
A: Its Potency is “inactive”.

Q: For `CCC(C)(C)n1nnnc1C(c1ccc2ncccc2c1)N1CCCC(C)C1` (stereo not drawn), which Potency is on record?
A: Its Potency is inconclusive [activator, single point].

Q: For `C/C(=N/NC(=O)c1sc(NS(=O)(=O)c2ccccc2)nc1C)c1ccccc1`, which Potency is on record?
A: Its Potency is inconclusive [activator, full curve, poor fit].

Q: With `CN(C)c1nc(-c2ccccc2)ns1` as the compound, how does the Potency read?
A: The Potency was inconclusive [activator, partial curve, poor fit].

Q: For `COc1ccc(-c2cc(C(F)(F)F)nc(SCC(=O)Nc3ccc4c(c3)OCO4)n2)cc1OC`, which Potency is on record?
A: The Potency was inconclusive [activator, single point].

Q: For `CCCCn1c(N)c(N(CC(C)C)C(=O)CSc2nn(-c3ccc(F)cc3)c(=S)s2)c(=O)[nH]c1=O`, which Potency is on record?
A: The Potency was inconclusive [activator, partial curve].

Q: With `O=C(O)CC/C(=C\c1cccc(NC(=O)c2ccccc2Cl)c1)c1nc2ccccc2s1` as the compound, how does the Potency read?
A: Its Potency is inconclusive [activator, single point].

Q: Which Potency does the source give for `COc1ccc(Oc2nc(SC)nc3ccsc23)cc1` here?
A: The Potency was inconclusive [activator, single point].

Q: With `Cc1cc(-c2nnco2)c(C)n1-c1ccccc1` as the compound, how does the Potency read?
A: Its Potency is “inactive”.

Q: With `O=C(N/N=C\C=C\c1ccco1)c1cncc(Br)c1` as the compound, how does the Potency read?
A: The Potency was inconclusive [activator, single point].

Q: Which Potency does the source give for `Cc1ccc(C(=O)C2=C(O)C(=O)N(CCCn3ccnc3)C2c2ccc(OC(C)C)cc2)o1` (stereo not drawn) here?
A: The Potency was “inactive”.

Q: For `Fc1ccccc1Oc1nc(-c2ccncc2)nc2ccccc12`, which Potency is on record?
A: The Potency was inconclusive [activator, partial curve].

Q: With `CCSc1nc(-c2ccccc2)nc2c1CCCC2` as the compound, how does the Potency read?
A: The Potency was inconclusive [activator, single point].

Q: For `O=C(COC(=O)C12CC3CC(CC(C3)C1)C2)Nc1nc2c(F)c(F)c(F)cc2s1`, which Potency is on record?
A: Its Potency is inconclusive [activator, partial curve].

Q: Which Potency does the source give for `COc1cc(OC)c2c(c1)C(=O)OC2OC` (stereo not drawn) here?
A: The Potency was “inactive”.

Q: For `O=C(/C=C/c1cn(-c2ccccc2)nc1-c1cccnc1)c1ccco1`, which Potency is on record?
A: Its Potency is inconclusive [activator, single point].

Q: Which Potency does the source give for `Cc1ccc(S(=O)(=O)CC(CN2CCCCC2)N2CCCCC2)cc1` (stereo not drawn) here?
A: Its Potency is inconclusive [activator, partial curve, poor fit].

Q: Which Potency does the source give for `Cc1ccc(NC(=O)c2cc3ccccc3oc2=O)cc1S(=O)(=O)N(C)C` here?
A: The Potency was “inactive”.

Q: With `CCOC(=O)[C@H]1[C@H]2COc3ccc(C)cc3[C@@H]2N2C(=O)c3ccccc3NC(=O)[C@@]12C` as the compound, how does the Potency read?
A: The Potency was “inactive”.

Q: For `O=C(c1ccc(-n2cnnn2)cc1)N1CCN(C(c2ccccc2)c2ccccc2)CC1`, which Potency is on record?
A: The Potency was inconclusive [activator, full curve].

Q: With `CNc1ccc(/C=C/C(=O)c2ccc3c(c2)OCCO3)cc1[N+](=O)[O-]` as the compound, how does the Potency read?
A: The Potency was inconclusive [activator, single point].

Q: Which Potency does the source give for `CCCN(CC1CC1)C(=S)NC(=O)c1ccccc1Br` here?
A: The Potency was “inactive”.

Q: For `C#CCOc1ccc(/C=C2/C(=O)ON=C2C)cc1OCC`, which Potency is on record?
A: The Potency was inconclusive [activator, single point].

Q: For `O=C1CN2CCC1C/C2=C\c1ccnc2c(Cl)cccc12` (stereo not drawn), which Potency is on record?
A: Its Potency is “inactive”.

Q: Which Potency does the source give for `Nc1nc(SCc2nc3scc(-c4ccccc4)c3c(=O)[nH]2)n[nH]1` here?
A: The Potency was inconclusive [activator, partial curve, poor fit].

Q: For `Cc1ccc(C(=O)N/C(=C\c2ccc(-c3ccccc3[N+](=O)[O-])o2)C(=O)NCCN(C)C)cc1`, which Potency is on record?
A: The Potency was “inactive”.

Q: With `Cn1nc(-c2ccccc2)c(CSc2ccccc2)c1Cl` as the compound, how does the Potency read?
A: Its Potency is active: 13 µM.

Q: For `Cc1csc(NC(=O)CSc2nc(C(C)C)nc3ccccc23)n1`, which Potency is on record?
A: The Potency was active: 18.4 µM.

Q: For `CCOCc1c(C(=O)N2CCN(CC(=O)Nc3ccc(F)cc3)CC2)oc2ccccc12`, which Potency is on record?
A: The Potency was inconclusive [activator, partial curve, poor fit].

Q: With `COC(=O)c1ccccc1NC(=S)NC(=O)c1ccc2c(c1)OCO2` as the compound, how does the Potency read?
A: The Potency was inconclusive [activator, single point].

Q: With `C/C(CC(=O)Nc1cc(C)ccn1)=N\NC(=O)c1cccc(C)c1O` as the compound, how does the Potency read?
A: The Potency was inconclusive [activator, partial curve, poor fit].

Q: Which Potency does the source give for `O=C(CCNC(=O)c1ccc(Br)cc1)NCC1COc2ccccc2O1` (stereo not drawn) here?
A: Its Potency is “inactive”.

Q: With `CC(C)CNC(=O)CSc1nnc(CN2CCCCCC2=O)n1-c1ccccn1` as the compound, how does the Potency read?
A: Its Potency is inconclusive [activator, partial curve, poor fit].
